Results published in PubChem BioAssay AID1508642 (National Center for Advancing Translational Sciences (NCATS), 2021).
In all, about 43,000 compounds went through this assay and about 200 (0.47%) were called active. Not shown: some 12% with an inconclusive outcome. The call rests on the fitted dose curve; in most records, active means well fitted cell-killing curve with a large enough effect; inconclusive means small, poorly fitted or top-dose-only effect, or effect the other way; inactive means flat fitted curve, though single readings scatter. The list shows a part of the results.

Test: Cell viability qHTS assay in S16 Pmp22-F2sN cells; further: nearly all actives have a fitted effect of over 65% in size
Conditions: S16 Pmp22-F2sN Schwann cells (luciferase reporters placed in the Pmp22 gene) viability, CellTiter-Glo, 24 h; series mostly up to 57.5 µM; activity change, negative = cytotoxicity: at the top concentration
Method in brief: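 Rat S16 Schwann reporter line, 24 h treatment with library compounds delivered at 23 nL per well. Cell viability by CellTiter-Glo luminescence.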
On the % scale 0 is the no-effect control and ±100 the full control effect.

| Compound | activity change, negative = cytotoxicity |
| --- | --- |
| O=C(c1ccccc1)N(Cc1ccco1)Cc1cccs1 | inactive: -4.25% |
| Cc1cccc(C(=O)Nc2ccc(C(=O)OCc3cc(=O)n4nc(CC(C)C)sc4n3)cc2)c1 | inactive: 0.35% |
| Cc1ccc(C)c(Cn2c(=O)cc(C)c3c(C)nn(C)c32)c1 | inactive: -11.5% |
| Cc1ccc(-n2ncc3c(N4CCN(C)CC4)ncnc32)cc1C | inactive: -19% |
| COc1cccc(CNC(=O)CCc2c(C)c3cc4c(C)coc4c(C)c3oc2=O)c1 | inactive: 1.31% |
| CCc1ccccc1NC(=O)CCS(=O)(=O)c1cccc2nonc12 | inactive: -5.93% |
| COc1ccc(N2CCN(C(=O)c3cc(S(=O)(=O)N4CCC(C)CC4)cn3C)CC2)cc1 | inactive: 0.364% |
| CCN1CCN(CCCNC(=O)c2ccc3nc(Cc4ccccc4)oc3c2)CC1 | inactive: -15.7% |
| CCOc1ccccc1N(CC)C(=O)c1noc2c1COc1ccc(C)cc1-2 | inactive: 2.47% |
| CCn1cc(C(=O)NCCc2ccc(Cl)cc2)c(=O)c2cc(S(=O)(=O)N3CCC(C)CC3)ccc21 | inactive: 11% |
| O=C(NC1CCCCC1)c1ccc2c(c1)N(Cc1ccc(Cl)cc1)C(=O)c1ccccc1S2=O (stereo not drawn) | inactive: 15.4% |
| O=C(c1ccc(F)cc1)n1nc(-c2ccccc2)nc1NCc1ccco1 | inactive: -9.51% |
| Cc1cccc(NC(=O)CCNS(=O)(=O)c2cccc3nsnc23)c1C | inactive: 16% |
| COc1ccc(N(CC(=O)N2CCN(c3ccccc3F)CC2)S(=O)(=O)c2c(C)n[nH]c2C)cc1 | inactive: -20.7% |
| CCN(C(=O)C1CCN(c2ncnc3c2nc2n3CCCCC2)CC1)c1cccc(Cl)c1 | inactive: -3.16% |
| COc1ccc(-n2ccnc(NCc3ccc(C)cc3)c2=O)cc1OC | inactive: 2.35% |
| O=C(NCC(c1ccc2c(c1)OCO2)N1CCOCC1)c1c(F)cccc1F (stereo not drawn) | inactive: -2.18% |
| CC(C)(Oc1ccc(Cl)cc1)C(=O)Nc1nc2ccc(S(C)(=O)=O)cc2s1 | inactive: -2.21% |
| CN(C)c1ccc(C(CNC(=O)c2c(F)cccc2Cl)N2CCOCC2)cc1 (stereo not drawn) | inactive: 13.7% |
| Cc1ccc(NC(=O)CN2C(=O)C3(SCC(=O)N3c3ccc(F)c(F)c3)c3ccccc32)c(C)c1 (stereo not drawn) | inactive: -22.3% |
| CCOCCCNC(=O)C(c1ccc(Cl)cc1)N(Cc1cccs1)C(=O)c1ccc(NC(C)=O)cc1 (stereo not drawn) | inactive: -15.8% |
| CCC(=O)N1CCc2cc(Br)cc(S(=O)(=O)CCC(=O)N(CC)Cc3ccccc3)c21 | inactive: 4.97% |
| COc1cc(OC)cc(C(=O)Nc2ccc3oc(-c4cccc5c(Br)cccc45)nc3c2)c1 | inactive: 3.87% |
| CN1C(=O)C2(SCC(=O)N2c2ccc(F)cc2)c2ccccc21 (stereo not drawn) | inactive: -2.34% |

| Compound | activity change, negative = cytotoxicity |
| --- | --- |
| CCOc1ccc(OCC)c(NS(=O)(=O)c2cc(-c3onc(C)c3C)ccc2OC)c1 | inactive: -2.54% |
| CC(=O)N1CCc2cc(CNS(=O)(=O)c3ccc(Cl)s3)ccc21 | inactive: -24.2% |
| COc1ccc(-n2c(=O)c3c4c(sc3n3c(SCCC(C)C)nnc23)COC(C(C)C)C4)cc1 (stereo not drawn) | inactive: 1.03% |
| CN(Cc1ccco1)S(=O)(=O)c1nnc(NC(=O)c2cccc(Cl)c2)s1 | inactive: -18.7% |
| CCCN(CCC)C(=O)c1cc2c(=O)n3cccc(C)c3nc2n1C | inactive: 11.9% |
| Cc1ccc2cccc(NC(=O)c3ccc(-c4cccc(Cl)c4)o3)c2n1 | inactive: 3.72% |
| Cc1ccc(NC(=O)Cn2c(=O)oc3cc(S(=O)(=O)N4CCCCCC4)ccc32)cc1Cl | inactive: -4.82% |
| CCOc1ccc(Nc2c(S(=O)(=O)c3ccccc3)cnc3ccccc23)cc1 | inactive: 0.931% |
| CC(C)C(NS(=O)(=O)c1ccc2c(c1)oc(=O)n2C)C(=O)NCCc1ccc(Cl)cc1 (stereo not drawn) | inactive: 1.41% |
| COCCNC(=O)CSc1nc(-c2ccccc2C)nc2c1c(=O)n(C)c(=O)n2C | inactive: 3.06% |
| NS(=O)(=O)c1ccc2nc(NC(=O)COc3ccccc3)sc2c1 | inactive: 0.119% |
| Cc1ccc(-c2nnc(Nc3ccc(S(N)(=O)=O)cc3)c3ccccc23)cc1S(=O)(=O)N1CCCCC1 | inactive: -15.4% |
| COC(=O)C1CCN(S(=O)(=O)c2cc3c4c(c2)CC(=O)N4CCC3)CC1 | inactive: -5.39% |
| O=C(Nc1cccc(F)c1)c1ccc(-c2ccccc2)s1 | inactive: 12.5% |
| CCCN(CCC)CCCNC(=O)Cn1cnc2sc(C)c(S(=O)(=O)N3CCC(C)CC3)c2c1=O | inactive: 1.9% |
| CCOCCCn1c(=N)c(C(=O)NCC2CCCO2)cc2c(=O)n3cccc(C)c3nc21 (stereo not drawn) | inactive: -6.67% |
| Cc1ccc(C)c(NC(=O)Cn2c(=O)n(Cc3ccccc3)c(=O)c3oc4ccccc4c32)c1 | inactive: 0.279% |
| Cc1ccc(C)c(N2CCN(Cc3csc(C)c3)CC2)c1 | inactive: -3.04% |
| COC(=O)C1=C(c2ccccc2)c2ccccc2S(=O)(=O)N1CC(=O)Nc1ccccc1Cl | inactive: 5.96% |
| Cc1ccc(CN2C(=O)c3ccccc3Sc3ccc(C(=O)OCc4ccco4)cc32)cc1 | inactive: 7.2% |
| Cc1ccc(S(=O)(=O)c2cn(Cc3ccccc3Cl)c3ccc(F)cc3c2=O)cc1 | inactive: -8.77% |
| COc1ccc2c(c1)NC(c1cccnc1)=NC(c1ccc(F)cc1)=N2 | inactive: -3.58% |
| CCOC(=O)c1c(C)oc2nc(C)nc(NCc3ccccc3OC)c12 | inactive: -26.4% |
| COc1ccccc1NC(=O)Cn1c(=O)n(CCCCCC(=O)NCc2ccccc2)c(=O)c2sccc21 | inactive: 12.9% |
